Measurements as given in the supplement of paper PMC10126150.
Values marked as one replicate rest on one cluster of the flow cell; about a third of the high ones do not repeat.
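Also: ATP exposure 15 min at 22 °C before imaging.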

The sequences below were run on ATP (assay: switch fluorescence ratio, 500 uM ATP over buffer (Cy3 cluster intensity, sum of 5 cycles each) (fold (ratio)); higher = stronger signal-on switching upon ATP binding; sequences stand for … in TCGTCGGCAGCGTCAGATGTGTATAAGAGACAGTTTTTTTTTTTTTTTTTTTTTTTTT…TC). Conditions: aptamer strand: ATP DNA aptamer (quencher-CACCTGGGGGAGTATTGCGGAGGAAGG + anchor), 100 nM annealed; ATP concentration: 500 uM; one replicate.
Method in brief: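 After annealing to 100 nM quencher-labelled ATP aptamer, Cy3-labelled switching-strand clusters on a modified Illumina MiSeq flow-cell were imaged in selection buffer. A second image followed after 15 min with 500 uM ATP at 22 °C, and five such buffer/ATP cycles were done, each separated by NaOH stripping and re-annealing. The fluorescence ratio, averaged per switch-domain sequence, is summed target-cycle over summed buffer-cycle Cy3 intensity per cluster, with clusters outside 100-1000 RFU excluded.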
In the case of CGTTTTGGAA, the switch fluorescence ratio is reported as 0.956.
In the case of CGTTTTGGCC, the switch fluorescence ratio is reported as 0.985.
CTAAAACCCC was tested, and the switch fluorescence ratio was 1.04.
Work on CTAAACAGAT yielded a switch fluorescence ratio of 1.01.
Work on CTAAAGCCA yielded a switch fluorescence ratio of 1.02.
CTAAATAGTA showed a switch fluorescence ratio of 1.01.
CTAACCTCCA showed a switch fluorescence ratio of 1.12.
CTAACGTA showed a switch fluorescence ratio of 1.07.
CTAACTTGGG was tested, and the switch fluorescence ratio was 0.993.
Sequence CTAAGAAGTT has a switch fluorescence ratio of 0.968.
With CTAAGCCAGC the switch fluorescence ratio was 1.06.
Sequence CTAAGGGG has a switch fluorescence ratio of 0.987.
For CTAAGGTGAA, the switch fluorescence ratio was 1.09.
With CTAATAAAAG the switch fluorescence ratio was 1.03.
For CTAATAATAA, the switch fluorescence ratio was 1.
Work on CTAATCATGG yielded a switch fluorescence ratio of 0.957.
CTAATCTCTG was tested, and the switch fluorescence ratio was 1.
For CTAATCTTGA, the switch fluorescence ratio was 1.01.
CTAATTAAA showed a switch fluorescence ratio of 0.984.
Work on CTAATTATAG yielded a switch fluorescence ratio of 0.959.
CTAATTGGAA showed a switch fluorescence ratio of 0.946.
CTAATTTGAG gave a switch fluorescence ratio of 1.01.
For CTACAAGACC, the switch fluorescence ratio was 1.14.
CTACAAGGGC was tested, and the switch fluorescence ratio was 1.05.
For CTACACATGG, the switch fluorescence ratio was 1.06.
In the case of CTACACTCGT, the switch fluorescence ratio is reported as 1.02.
Work on CTACAGCGAT yielded a switch fluorescence ratio of 3.56.
Work on CTACATCTGG yielded a switch fluorescence ratio of 0.967.
CTACATGGAA showed a switch fluorescence ratio of 1.01.
CTACCAGGAA showed a switch fluorescence ratio of 1.06.
For CTACCTAGGC, the switch fluorescence ratio was 1.08.
With CTACGCCGTG the switch fluorescence ratio was 0.982.
In the case of CTACGCGTAA, the switch fluorescence ratio is reported as 1.62.
Sequence CTACGGAGGA has a switch fluorescence ratio of 1.16.
CTACGGTGGT gave a switch fluorescence ratio of 1.
In the case of CTACGTATGT, the switch fluorescence ratio is reported as 1.08.
Sequence CTACGTCGTT has a switch fluorescence ratio of 1.02.
Work on CTACTACGGA yielded a switch fluorescence ratio of 1.02.
CTACTCTGAT showed a switch fluorescence ratio of 0.978.
With CTACTTACGG the switch fluorescence ratio was 1.52.
With CTACTTAGGA the switch fluorescence ratio was 1.02.
CTACTTCTCA was tested, and the switch fluorescence ratio was 1.05.
CTACTTGTGG showed a switch fluorescence ratio of 0.958.
CTACTTTGTT gave a switch fluorescence ratio of 0.98.
For CTAGAAAGTG, the switch fluorescence ratio was 1.06.
Work on CTAGACTAGG yielded a switch fluorescence ratio of 1.01.
CTAGCGCCGA was tested, and the switch fluorescence ratio was 0.962.
In the case of CTAGCTAGGT, the switch fluorescence ratio is reported as 1.02.
CTAGGAAACT showed a switch fluorescence ratio of 1.05.
Work on CTAGGACTCT yielded a switch fluorescence ratio of 0.981.
CTAGGAGGTA was tested, and the switch fluorescence ratio was 1.02.
For CTAGGAGTC, the switch fluorescence ratio was 0.995.
Work on CTAGGCCGGT yielded a switch fluorescence ratio of 0.949.
With CTAGGGGAG the switch fluorescence ratio was 0.983.
CTAGGGTGCG showed a switch fluorescence ratio of 0.968.
For CTAGGTAGCA, the switch fluorescence ratio was 1.03.
CTAGGTGAAC showed a switch fluorescence ratio of 1.07.
Work on CTAGTAACGT yielded a switch fluorescence ratio of 1.01.
CTAGTAATTC was tested, and the switch fluorescence ratio was 1.27.
With CTAGTACGCA the switch fluorescence ratio was 1.08.
Sequence CTAGTCTCCT has a switch fluorescence ratio of 1.07.
With CTAGTGTGCT the switch fluorescence ratio was 1.03.
For CTAGTTACGA, the switch fluorescence ratio was 1.02.
CTAGTTGCAC showed a switch fluorescence ratio of 0.982.
CTATAAAGAG showed a switch fluorescence ratio of 0.993.
CTATAATAGT was tested, and the switch fluorescence ratio was 1.03.
With CTATAATCGG the switch fluorescence ratio was 1.02.
For CTATACGTA, the switch fluorescence ratio was 1.14.
CTATACTTAG gave a switch fluorescence ratio of 0.977.
Work on CTATAGTGAC yielded a switch fluorescence ratio of 1.11.
CTATATCGGA was tested, and the switch fluorescence ratio was 0.985.
Sequence CTATCACTAC has a switch fluorescence ratio of 1.09.
For CTATCGAGGG, the switch fluorescence ratio was 0.952.
For CTATCGGTGG, the switch fluorescence ratio was 1.04.
Sequence CTATCGTATT has a switch fluorescence ratio of 0.994.
CTATCTCAG showed a switch fluorescence ratio of 1.03.
Work on CTATCTCTCT yielded a switch fluorescence ratio of 0.924.
CTATGAAATG was tested, and the switch fluorescence ratio was 1.05.
CTATGACACG was tested, and the switch fluorescence ratio was 0.997.
CTATGGATGG was tested, and the switch fluorescence ratio was 1.
CTATGTGGG was tested, and the switch fluorescence ratio was 1.01.
CTATTAGCGT gave a switch fluorescence ratio of 0.938.
With CTATTATTGG the switch fluorescence ratio was 1.01.
Sequence CTATTCGATC has a switch fluorescence ratio of 0.99.
With CTATTCTTTG the switch fluorescence ratio was 0.988.
In the case of CTATTGGAGG, the switch fluorescence ratio is reported as 0.992.
Sequence CTATTTACCT has a switch fluorescence ratio of 1.18.
CTATTTGATT showed a switch fluorescence ratio of 1.02.
CTCAAAATCG gave a switch fluorescence ratio of 1.09.
In the case of CTCAAAGTCG, the switch fluorescence ratio is reported as 1.05.
Sequence CTCAACCCAA has a switch fluorescence ratio of 1.11.
CTCAACGTCA showed a switch fluorescence ratio of 1.11.
CTCAACTTAT showed a switch fluorescence ratio of 1.02.
Work on CTCAAGAGGG yielded a switch fluorescence ratio of 0.987.
For CTCAAGTAAT, the switch fluorescence ratio was 1.55.
Sequence CTCACAGCGT has a switch fluorescence ratio of 1.02.
Work on CTCACTAGCT yielded a switch fluorescence ratio of 1.06.
CTCACTTTGA showed a switch fluorescence ratio of 0.983.
For CTCAGCAAAC, the switch fluorescence ratio was 1.98.
CTCAGCGAT showed a switch fluorescence ratio of 3.21.
Work on CTCAGCGGTG yielded a switch fluorescence ratio of 1.05.
CTCAGCTAAG gave a switch fluorescence ratio of 1.33.
CTCAGGTTAT showed a switch fluorescence ratio of 1.01.
In the case of CTCATGCTGC, the switch fluorescence ratio is reported as 1.43.
CTCATTGGTG was tested, and the switch fluorescence ratio was 1.09.
With CTCCAAAGCT the switch fluorescence ratio was 1.41.
In the case of CTCCAAGGCC, the switch fluorescence ratio is reported as 1.08.
CTCCACCGAT gave a switch fluorescence ratio of 1.41.
CTCCAGTTA gave a switch fluorescence ratio of 1.13.
With CTCCATGGAG the switch fluorescence ratio was 0.966.
Work on CTCCCGGGCC yielded a switch fluorescence ratio of 1.21.
Work on CTCCCGGTCG yielded a switch fluorescence ratio of 1.02.
With CTCCCGTCGA the switch fluorescence ratio was 1.58.
For CTCCCGTTTT, the switch fluorescence ratio was 1.01.
CTCCGGACGG was tested, and the switch fluorescence ratio was 1.08.
Work on CTCCTACAAT yielded a switch fluorescence ratio of 3.67.
In the case of CTCCTGGCGG, the switch fluorescence ratio is reported as 1.21.
With CTCCTTACAT the switch fluorescence ratio was 1.07.
CTCGACGCTT gave a switch fluorescence ratio of 1.26.
CTCGACTGTT showed a switch fluorescence ratio of 0.95.
CTCGCCGGAG gave a switch fluorescence ratio of 1.01.
CTCGCGTGGG gave a switch fluorescence ratio of 0.988.
CTCGCTAGTG showed a switch fluorescence ratio of 1.05.
CTCGCTCGCT showed a switch fluorescence ratio of 1.08.
CTCGGAAAGG was tested, and the switch fluorescence ratio was 0.983.
CTCGGAAGGT was tested, and the switch fluorescence ratio was 1.04.
CTCGGATGC gave a switch fluorescence ratio of 1.
CTCGGCAGAT was tested, and the switch fluorescence ratio was 1.93.
With CTCGGCTACA the switch fluorescence ratio was 1.54.
For CTCGGCTCAT, the switch fluorescence ratio was 1.15.
For CTCGGGCCGG, the switch fluorescence ratio was 1.
With CTCGGGCGGG the switch fluorescence ratio was 1.01.
With CTCGGGTTAG the switch fluorescence ratio was 0.971.
With CTCGGTAAAT the switch fluorescence ratio was 1.
CTCGTACCGT showed a switch fluorescence ratio of 0.955.
For CTCGTAGTTC, the switch fluorescence ratio was 1.08.
CTCGTCAACC showed a switch fluorescence ratio of 1.42.
For CTCGTCGTGA, the switch fluorescence ratio was 1.03.
For CTCGTTGTGA, the switch fluorescence ratio was 1.04.
CTCGTTTTGC gave a switch fluorescence ratio of 0.945.
CTCTAATTCT was tested, and the switch fluorescence ratio was 0.986.
Work on CTCTACATTG yielded a switch fluorescence ratio of 1.01.
Work on CTCTACCGCC yielded a switch fluorescence ratio of 1.53.
CTCTAGGTTC was tested, and the switch fluorescence ratio was 1.06.
With CTCTATAATA the switch fluorescence ratio was 1.13.
CTCTATCCCG showed a switch fluorescence ratio of 0.996.
CTCTATGCCG showed a switch fluorescence ratio of 1.12.
In the case of CTCTATTACC, the switch fluorescence ratio is reported as 1.
For CTCTCAGCGC, the switch fluorescence ratio was 1.15.
CTCTCAGTTT was tested, and the switch fluorescence ratio was 0.999.
CTCTCCAGCC showed a switch fluorescence ratio of 2.32.
In the case of CTCTCCTCGG, the switch fluorescence ratio is reported as 1.37.
With CTCTCGTAGA the switch fluorescence ratio was 1.04.
